From a collection of fitness landscapes (doi:10.1126/science.1257360)
The other results are listed elsewhere or left out.

B1: PhoQ; a variant is named by its letters at X, in order, P23837 (parent)
chain: MKKLLRLFFPLSLRVRFLLATAAVVLVLSLAYGMVALIGYSVSFDKTTFRLLRGESNLFYTLAKWENNKLHVELPENIDKQSPTMTLIYDENGQLLWAQRDVPWLMKMIQPDWLKSNGFHEIEADVNDTSLLLSGDHSIQQQLQEVREDDDDAEMTHSVAVNVYPATSRMPKLTIVVVDTIPVELKSSYMVWSWFIYVLSANLLLVIPLLWVAAWWSLRPIEALAKEVRELEEHNRELLNPATTRELTSLVRNLNRLLKSERERYDKYRTTLTDLTHSLKTPLXXLQXXLRSLRSEKMSVSDAEPVMLEQISRISQQIGYYLHRASMRGGTLLSRELHPVAPLLDNLTSALNKVYQRKGVNISLDISPEISFVGEQNDFVEVMGNVLDNACKYCLEFVEISARQTDEHLYIVVEDDGPGIPLSKREVIFDRGQRVDTLRPGQGVGLAVAREITEQYEGKIVAGESMLGGARMEVIFGRQHSAPKDE

Variants of: B1
Assay: enrichment ratio after two sorts for PhoP signalling (ratio (wild type AVST 3.29)); higher = more functional
Settings: with PhoP (E. coli)

Variant | enrichment ratio
WVKS | ≤ 0.25
GAQN | ≤ 0.25
YLMV | ≤ 0.25
FLEA | ≤ 0.25
SPGK | ≤ 0.25
THTQ | 1.45
ADKC | ≤ 0.25
MQGT | ≤ 0.25
WTRA | ≤ 0.25
KEAY | ≤ 0.25
QLPF | ≤ 0.25
LDCL | ≤ 0.25
PMFY | ≤ 0.25
HPCF | ≤ 0.25
RECA | ≤ 0.25
QAVR | ≤ 0.25
MIFS | ≤ 0.25
LNFW | ≤ 0.25
ISNF | ≤ 0.25
QQPQ | ≤ 0.25
YVMM | ≤ 0.25
GTGV | ≤ 0.25
MCAS | 14
WYTC | ≤ 0.25
KPQM | ≤ 0.25
VKMV | ≤ 0.25

Variant | enrichment ratio
KEGQ | ≤ 0.25
YLQW | ≤ 0.25
NTVP | ≤ 0.25
QVWT | ≤ 0.25
THDW | ≤ 0.25
QGFM | 5.14
NKVP | ≤ 0.25
APDP | ≤ 0.25
HLQM | ≤ 0.25
WDSD | ≤ 0.25
AMTS | 13.9
LNCF | ≤ 0.25
YEQD | ≤ 0.25
DFEV | ≤ 0.25
VNRM | ≤ 0.25
TTTN | 4.77
RDAI | ≤ 0.25
SAQL | 9.87
LLIW | ≤ 0.25
WFKF | ≤ 0.25
ADMH | ≤ 0.25
EEVD | ≤ 0.25
TASL | 15.1
AQNR | ≤ 0.25
FRWT | ≤ 0.25
STDT | ≤ 0.25

Variant | enrichment ratio
WPTN | ≤ 0.25
TRSG | ≤ 0.25
WCRV | ≤ 0.25
MFDP | ≤ 0.25
CLHI | ≤ 0.25
QYFQ | ≤ 0.25
WGYY | ≤ 0.25
MMFL | ≤ 0.25
KIAW | ≤ 0.25
FCEF | ≤ 0.25
HEQI | ≤ 0.25
IDMP | ≤ 0.25
VTLY | ≤ 0.25
FNTV | ≤ 0.25
TKIM | 15.1
WGMM | ≤ 0.25
MTVW | ≤ 0.25
MLYH | ≤ 0.25
SMVN | 6.56
VPHC | ≤ 0.25
IGFH | ≤ 0.25
AQIE | 5.02
LQAQ | ≤ 0.25
KCYC | ≤ 0.25
SARV | ≤ 0.25
MVYP | ≤ 0.25

Variant | enrichment ratio
NVVA | ≤ 0.25
YQDF | ≤ 0.25
FNQV | ≤ 0.25
DDMW | ≤ 0.25
PGEN | ≤ 0.25
WHND | ≤ 0.25
PSYH | ≤ 0.25
DSRC | ≤ 0.25
PNYN | ≤ 0.25
TCCS | 8.68
VPWR | ≤ 0.25
KGCT | ≤ 0.25
MLML | 1.11
NCTI | ≤ 0.25
SFRV | ≤ 0.25
YAKF | ≤ 0.25
LYIL | ≤ 0.25
KFQA | ≤ 0.25
FRIK | ≤ 0.25
KPCR | ≤ 0.25
WEPF | ≤ 0.25
PKGN | ≤ 0.25
FMIC | ≤ 0.25
ELYA | ≤ 0.25
TEQI | 15
LIYS | ≤ 0.25

Variant | enrichment ratio
FQHA | ≤ 0.25
ACMQ | 31.7
KGPA | ≤ 0.25
YTLL | 9.09
EQHN | ≤ 0.25
KING | ≤ 0.25
IEVC | ≤ 0.25
KVTD | ≤ 0.25
SWMP | ≤ 0.25
FTWN | ≤ 0.25
DYPY | ≤ 0.25
FGPM | ≤ 0.25
EKVH | ≤ 0.25
QNKM | ≤ 0.25
VVWA | ≤ 0.25
YSAA | ≤ 0.25
TYAW | ≤ 0.25
DGTF | ≤ 0.25
ENLF | ≤ 0.25
VFQY | ≤ 0.25
FAYI | ≤ 0.25
GNSC | 12.1
MYFF | ≤ 0.25
VGNN | ≤ 0.25
MICD | ≤ 0.25
ADSW | ≤ 0.25

Variant | enrichment ratio
MHDM | ≤ 0.25
WQVP | 0.306
NRYF | ≤ 0.25
KEVQ | ≤ 0.25
ILFC | ≤ 0.25
YGMQ | ≤ 0.25
WEEC | ≤ 0.25
NQCR | ≤ 0.25
AHKE | ≤ 0.25
SAHG | ≤ 0.25
LTQP | ≤ 0.25
MWAS | ≤ 0.25
KNHI | ≤ 0.25
FSLV | 8.86
RIMR | ≤ 0.25
LHLM | ≤ 0.25
TAPF | ≤ 0.25
SPHN | ≤ 0.25
MAQH | ≤ 0.25
GSYV | ≤ 0.25
KFYH | ≤ 0.25
SVAI | 10.3
WPRF | ≤ 0.25
